The values below come from patent EP4491631A1 (Anaveon AG, dated 2025).

What all share (experiment): cell-based or functional assay
Test [1] concerns the target T1, IL-2R on murine splenocytes (mouse, UniProt P16297 27-539; P34902 23-369).
T1 sequence (looked up) 1: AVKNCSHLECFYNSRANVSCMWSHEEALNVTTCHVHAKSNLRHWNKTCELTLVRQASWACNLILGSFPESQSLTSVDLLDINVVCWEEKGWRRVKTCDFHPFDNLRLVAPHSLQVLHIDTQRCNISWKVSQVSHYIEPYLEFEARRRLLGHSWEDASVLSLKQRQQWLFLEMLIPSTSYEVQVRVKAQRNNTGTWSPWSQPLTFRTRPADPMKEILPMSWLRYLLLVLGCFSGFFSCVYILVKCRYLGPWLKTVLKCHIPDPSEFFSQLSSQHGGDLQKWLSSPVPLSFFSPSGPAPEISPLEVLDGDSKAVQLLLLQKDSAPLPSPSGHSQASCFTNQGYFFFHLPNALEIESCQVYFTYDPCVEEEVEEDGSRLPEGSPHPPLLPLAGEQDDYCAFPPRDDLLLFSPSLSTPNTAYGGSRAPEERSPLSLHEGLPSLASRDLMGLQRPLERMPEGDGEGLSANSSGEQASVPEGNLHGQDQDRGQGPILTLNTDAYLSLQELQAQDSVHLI
T1 sequence (looked up) 2: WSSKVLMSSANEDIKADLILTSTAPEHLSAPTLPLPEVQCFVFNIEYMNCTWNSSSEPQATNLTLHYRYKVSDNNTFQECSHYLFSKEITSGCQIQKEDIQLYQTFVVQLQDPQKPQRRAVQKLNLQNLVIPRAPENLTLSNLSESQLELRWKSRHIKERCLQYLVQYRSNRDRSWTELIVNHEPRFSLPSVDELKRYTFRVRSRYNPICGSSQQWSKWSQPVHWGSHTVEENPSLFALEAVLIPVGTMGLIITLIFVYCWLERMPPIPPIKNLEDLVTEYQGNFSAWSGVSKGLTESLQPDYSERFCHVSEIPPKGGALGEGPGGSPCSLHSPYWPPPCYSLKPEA

In test [2] the target is T1, IL-2R on murine splenocytes. The source holds these as a separate data set.
Test [3] deals with T2, IL-2R CD122-CD132 on Jurkat-PD1+ CD122+ cells (UniProt P14784 27-551; P31785 23-369).
T2 sequence (looked up) 1: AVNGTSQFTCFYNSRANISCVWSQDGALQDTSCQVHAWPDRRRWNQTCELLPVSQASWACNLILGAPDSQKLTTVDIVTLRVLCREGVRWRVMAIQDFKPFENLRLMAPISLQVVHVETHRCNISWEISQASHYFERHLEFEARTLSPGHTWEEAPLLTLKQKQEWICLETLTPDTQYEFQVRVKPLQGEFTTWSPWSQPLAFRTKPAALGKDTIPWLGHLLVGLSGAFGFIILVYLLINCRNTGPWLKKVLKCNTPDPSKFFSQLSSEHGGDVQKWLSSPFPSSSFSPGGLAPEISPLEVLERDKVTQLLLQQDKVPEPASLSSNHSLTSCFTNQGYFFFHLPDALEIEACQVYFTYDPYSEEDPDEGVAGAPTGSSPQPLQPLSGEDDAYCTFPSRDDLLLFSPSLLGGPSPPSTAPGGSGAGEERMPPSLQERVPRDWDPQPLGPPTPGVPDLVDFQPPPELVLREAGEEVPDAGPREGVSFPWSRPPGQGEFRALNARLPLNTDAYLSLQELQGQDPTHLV
T2 sequence (looked up) 2: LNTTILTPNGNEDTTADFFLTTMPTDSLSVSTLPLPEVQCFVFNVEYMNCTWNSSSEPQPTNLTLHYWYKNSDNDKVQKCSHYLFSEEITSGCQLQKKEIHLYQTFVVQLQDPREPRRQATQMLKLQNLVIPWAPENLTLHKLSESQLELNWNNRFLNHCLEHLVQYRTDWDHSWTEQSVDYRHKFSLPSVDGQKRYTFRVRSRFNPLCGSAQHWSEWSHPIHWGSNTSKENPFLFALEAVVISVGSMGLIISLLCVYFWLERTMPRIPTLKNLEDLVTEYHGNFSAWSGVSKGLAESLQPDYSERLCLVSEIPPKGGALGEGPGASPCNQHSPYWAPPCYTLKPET

B1: ECV200 (other)
heavy: QVQLVESGGGVVQPGRSLRLSCAASGYTFSSYLIEWVRQAPGKGLEWVAVINPGSGGTNYADSVKGRFTISADKSKNTAYLQMNSLRAEDTAVYYCARWRGDGYYAYFDVWGQGTTVTVSSASTKGPSVFPLAPSSKSTSGGTAALGCLVKDYFPEPVTVSWNSGALTSGVHTFPAVLQSSGLYSLSSVVTVPSSSLGTQTYICNVNHKPSNTKVDKRV[gap - human IgG1 Fc with changes]
light: EIVLTQSPATLSVSPGERATLSCRASQSVSYGGGGSGNFHLRPRDLISNINVIVLELKGSETTFMCEYADETATIVEFLNRWITFSQSIISTLTPTSSSTKKTQLQLEHLLLDLQMILNGINNYKNPKLTRMLTFKFYMPKKATELKHLQCLEEELKPLEEVLNLAQSKGGGGSGGDSYMNWYQQKPGQAPRLLIYAASNLASGIPARFSGSGSGTEFTLTISSLQSEDAAVYYCQQSNEDPYTFGGGTKVEIKRTVAAPSVFIFPPSDEQLKSGTASVVCLLNNFYPREAKVQWKVDNALQSGNSQESVTEQDSKDSTYSLSSTLTLSKADYEKHKVYACEVTHQGLSSPVTKSFNRGEC
With B1, in test [1], the “EC50 CD8 cells (pSTAT5)” value was 6.9 nM, the “EC50 NK cells (pSTAT5)” value was found to be 0.9 nM and the “EC50 Treg cells (pSTAT5)” value was found to be 3.7 nM.

B2: BFC885 (other)
heavy: QVQLVESGGGVVQPGRSLRLSCAASGYTFSSYLIEWVRQAPGKGLEWVAVINPGSGGTNYADSVKGRFTISADKSKNTAYLQMNSLRAEDTAVYYCARWRGDGYYAYFDVWGQGTTVTVSSASTKGPSVFPLAPSSKSTSGGTAALGCLVKDYFPEPVTVSWNSGALTSGVHTFPAVLQSSGLYSLSSVVTVPSSSLGTQTYICNVNHKPSNTKVDKRV[gap - human IgG1 Fc with changes]
light: EIVLTQSPATLSVSPGERATLSCRASQSVSYGGGGSGGGGSGGGNFHLRPRDLISNINVIVLELKGSETTFMCEYADETATIVEFLNRWITFSQSIISTLTPTSSSTKKTQLQLEHLLLDLQMILNGINNYKNPKLTRMLTFKFYMPKKATELKHLQCLEEELKPLEEVLNLAQSKGGGGSGGGGSGGGGDSYMNWYQQKPGQAPRLLIYAASNLASGIPARFSGSGSGTEFTLTISSLQSEDAAVYYCQQSNEDPYTFGGGTKVEIKRTVAAPSVFIFPPSDEQLKSGTASVVCLLNNFYPREAKVQWKVDNALQSGNSQESVTEQDSKDSTYSLSSTLTLSKADYEKHKVYACEVTHQGLSSPVTKSFNRGEC
With B2, in test [1], the “EC50 CD8 cells (pSTAT5)” value worked out at 26.4 nM, the “EC50 NK cells (pSTAT5)” value stood at 2 nM and the “EC50 Treg cells (pSTAT5)” value was found to be 0.9 nM.

B3: QTY065 (other)
heavy: EVQLVQSGAEVKKPGESLKISCKGSGYAFTNYLIEWVRQMPGKGLEWMGVINPGSGGTNYNEKFKGQVTISADKSISTAYLQWSSLKASDTAMYYCARWRGEGYYAYFDVWGQGTTVTVSSASTKGPSVFPLAPSSKSTSGGTAALGCLVKDYFPEPVTVSWNSGALTSGVHTFPAVLQSSGLYSLSSVVTVPSSSLGTQTYICNVNHKPSNTKVDKRV[gap - human IgG1 Fc with changes]
light: AIRLTQSPSSFSASTGDRVTITCKASQSVDYGGGNFHLRPRDLISNINVIVLELKGSETTFMCEYADETATIVEFLNRWITFSQSIISTLTPTSSSTKKTQLQLEHLLLDLQMILNGINNYKNPKLTRMLTFKFYMPKKATELKHLQCLEEELKPLEEVLNLAQSKGGGGDSYMNWYQQKPGKAPKLLIYAASNLESGVPSRFSGSGSGTDFTLTISSLQSEDFATYYCQQSNEDPYTFGGGTKVEIKRTVAAPSVFIFPPSDEQLKSGTASVVCLLNNFYPREAKVQWKVDNALQSGNSQESVTEQDSKDSTYSLSSTLTLSKADYEKHKVYACEVTHQGLSSPVTKSFNRGEC
Consider B3, for which, in test [1], the “EC50 CD8 cells (pSTAT5)” value was 4.6 nM, the “EC50 NK cells (pSTAT5)” value amounted to 1.2 nM and the “EC50 Treg cells (pSTAT5)” value was determined as 5.91 nM. In test [2], the “EC50 pSTAT5 on CD8 cells” value stood at 17.9 nM, the “EC50 pSTAT5 on NK cells” value came out at 2.88 nM and the “EC50 pSTAT5 on Treg cells” value is 4.21 nM. Further, the “EC50 value for pSTAT5 induction” value in test [3] came out at 1.07 nM.

B4: XFO227 (other)
heavy: EVQLVQSGAEVKKPGESLKISCKGSGYAFTNYLIEWVRQMPGKGLEWMGVINPGSGGTNYNEKFKGQVTISADKSISTAYLQWSSLKASDTAMYYCARWRGEGYYAYFDVWGQGTTVTVSSASTKGPSVFPLAPSSKSTSGGTAALGCLVKDYFPEPVTVSWNSGALTSGVHTFPAVLQSSGLYSLSSVVTVPSSSLGTQTYICNVNHKPSNTKVDKRV[gap - human IgG1 Fc with changes]
light: AIRLTQSPSSFSASTGDRVTITCKASQSVDYGGNFHLRPRDLISNINVIVLELKGSETTFMCEYADETATIVEFLNRWITFSQSIISTLTPTSSSTKKTQLQLEHLLLDLQMILNGINNYKNPKLTRMLTFKFYMPKKATELKHLQCLEEELKPLEEVLNLAQSKGGGDSYMNWYQQKPGKAPKLLIYAASNLESGVPSRFSGSGSGTDFTLTISSLQSEDFATYYCQQSNEDPYTFGGGTKVEIKRTVAAPSVFIFPPSDEQLKSGTASVVCLLNNFYPREAKVQWKVDNALQSGNSQESVTEQDSKDSTYSLSSTLTLSKADYEKHKVYACEVTHQGLSSPVTKSFNRGEC
As for B4, in test [1], the “EC50 CD8 cells (pSTAT5)” value is 8 nM, the “EC50 NK cells (pSTAT5)” value is 2.7 nM and the “EC50 Treg cells (pSTAT5)” value amounted to 10.6 nM.

B5: EAD406 (other)
heavy: EVQLVQSGAEVKKPGESLKISCKGSGYAFTNYLIEWVRQMPGKGLEWMGVINPGSGGTNYNEKFKGQVTISADKSISTAYLQWSSLKASDTAMYYCARWRGEGYYAYFDVWGQGTTVTVSSASTKGPSVFPLAPSSKSTSGGTAALGCLVKDYFPEPVTVSWNSGALTSGVHTFPAVLQSSGLYSLSSVVTVPSSSLGTQTYICNVNHKPSNTKVDKRV[gap - human IgG1 Fc with changes]
light: AIRLTQSPSSFSASTGDRVTITCKASQSVDYNFHLRPRDLISNINVIVLELKGSETTFMCEYADETATIVEFLNRWITFSQSIISTLTPTSSSTKKTQLQLEHLLLDLQMILNGINNYKNPKLTRMLTFKFYMPKKATELKHLQCLEEELKPLEEVLNLAQSKGDSYMNWYQQKPGKAPKLLIYAASNLESGVPSRFSGSGSGTDFTLTISSLQSEDFATYYCQQSNEDPYTFGGGTKVEIKRTVAAPSVFIFPPSDEQLKSGTASVVCLLNNFYPREAKVQWKVDNALQSGNSQESVTEQDSKDSTYSLSSTLTLSKADYEKHKVYACEVTHQGLSSPVTKSFNRGEC
In the case of B5, in test [1], the “EC50 CD8 cells (pSTAT5)” value was determined as 15.7 nM, the “EC50 NK cells (pSTAT5)” value worked out at 5.2 nM and the “EC50 Treg cells (pSTAT5)” value was determined as 22 nM.
